Reference: the supplement of paper PMC8728848
The other results are listed elsewhere or left out.

Experiments:
Assay in all cases: glycan array binding signal (z-score within array); higher = stronger binding
Conditions in all cases: glycan notation: IUPAC condensed, linker removed
[1] = biological target: Neu5Ac(a2-6)Gal(b1-4)GlcNAc(b1-3)Gal(b1-4)GlcNAc(b1-3)GalNAc
How it was run: (§1)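 Columns mapping to the same glycan were averaged after glycan names were converted to IUPAC-condensed notation. The data come from 3228 arrays in the Consortium for Functional Glycomics database, limited to those with an available protein sequence. Binding is reported as a within-array Z-score averaged across arrays of one protein sequence and across linkers.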

[2] = biological target: Neu5Ac(a2-6)Gal(b1-4)GlcNAc(b1-3)Gal(b1-4)GlcNAc(b1-3)[Neu5Ac(a2-6)Gal(b1-4)GlcNAc(b1-3)Gal(b1-4)GlcNAc(b1-6)]GalNAc
How it was run: as §1

[3] = biological target: Neu5Ac(a2-6)Gal(b1-4)GlcNAc(b1-3)Gal(b1-4)GlcNAc(b1-6)[Gal(b1-3)]GalNAc
How it was run: as §1

[4] = biological target: Neu5Ac(a2-6)Gal(b1-4)GlcNAc(b1-3)Gal(b1-4)[Fuc(a1-3)]GlcNAc(b1-3)Gal(b1-4)[Fuc(a1-3)]GlcNAc
How it was run: as §1

[5] = biological target: Neu5Ac(a2-6)Gal(b1-4)GlcNAc(b1-3)GalNAc
How it was run: as §1

[6] = biological target: Neu5Ac(a2-6)Gal(b1-4)GlcNAc(b1-3)[Neu5Ac(a2-6)Gal(b1-4)GlcNAc(b1-6)]GalNAc
How it was run: as §1

[7] = biological target: Neu5Ac(a2-6)Gal(b1-4)GlcNAc(b1-6)GalNAc
How it was run: as §1

[8] = biological target: Neu5Ac(a2-6)Gal(b1-4)GlcNAc(b1-6)[Gal(b1-3)GlcNAc(b1-3)]Gal(b1-4)Glc
How it was run: as §1

[9] = biological target: Neu5Ac(a2-6)Gal(b1-4)GlcNAc(b1-6)[Gal(b1-3)]GalNAc
How it was run: as §1

[10] = biological target: Neu5Ac(a2-6)Gal(b1-4)GlcNAc6S
How it was run: as §1

[11] = biological target: Neu5Ac(a2-6)GalNAc
How it was run: as §1

[12] = biological target: Neu5Ac(a2-6)GalNAc(b1-4)GlcNAc
How it was run: as §1

[13] = biological target: Neu5Ac(a2-6)GalNAc(b1-4)GlcNAc6S
How it was run: as §1

[14] = biological target: Neu5Ac(a2-6)GlcNAc(b1-4)GlcNAc
How it was run: as §1

[15] = biological target: Neu5Ac(a2-6)GlcNAc(b1-4)GlcNAc(b1-4)GlcNAc
How it was run: as §1

[16] = biological target: Neu5Ac(a2-8)Neu5Ac
How it was run: as §1

[17] = biological target: Neu5Ac(a2-8)Neu5Ac(a2-3)Gal(b1-3)GalNAc(b1-4)[Neu5Ac(a2-3)]Gal(b1-4)Glc
How it was run: as §1

[18] = biological target: Neu5Ac(a2-8)Neu5Ac(a2-3)Gal(b1-3)GalNAc(b1-4)[Neu5Ac(a2-8)Neu5Ac(a2-3)]Gal(b1-4)Glc
How it was run: as §1

[19] = biological target: Neu5Ac(a2-8)Neu5Ac(a2-3)Gal(b1-4)Glc
How it was run: as §1

[20] = biological target: Neu5Ac(a2-8)Neu5Ac(a2-3)Gal(b1-4)GlcNAc
How it was run: as §1

[21] = biological target: Neu5Ac(a2-8)Neu5Ac(a2-3)[Gal(b1-3)GalNAc(b1-4)]Gal(b1-4)Glc
How it was run: as §1

[22] = biological target: Neu5Ac(a2-8)Neu5Ac(a2-3)[GalNAc(b1-4)]Gal(b1-4)Glc
How it was run: as §1

[23] = biological target: Neu5Ac(a2-8)Neu5Ac(a2-8)Neu5Ac
How it was run: as §1

[24] = biological target: Neu5Ac(a2-8)Neu5Ac(a2-8)Neu5Ac(a2-3)Gal(b1-4)Glc
How it was run: as §1

[25] = biological target: Neu5Ac(a2-8)Neu5Ac(a2-8)Neu5Ac(a2-3)[Gal(b1-3)GalNAc(b1-4)]Gal(b1-4)Glc
How it was run: as §1

[26] = biological target: Neu5Ac(a2-8)Neu5Ac(a2-8)Neu5Ac(a2-3)[GalNAc(b1-4)]Gal(b1-4)Glc
How it was run: as §1

[27] = biological target: Neu5Ac(a2-8)Neu5Ac(a2-8)Neu5Ac(a2-8)Neu5Ac(a2-3)[GalNAc(b1-4)]Gal(b1-4)Glc
How it was run: as §1

[28] = biological target: Neu5Ac(a2-8)Neu5Gc(a2-3)Gal(b1-4)GlcNAc
How it was run: as §1

[29] = biological target: Neu5Ac(b2-6)Gal(b1-4)GlcNAc
How it was run: as §1

[30] = biological target: Neu5Ac(b2-6)GalNAc
How it was run: as §1

[31] = biological target: Neu5Ac9Ac(a2-3)Gal(b1-3)GlcNAc
How it was run: as §1

[32] = biological target: Neu5Ac9Ac(a2-3)Gal(b1-4)GlcNAc
How it was run: as §1

[33] = biological target: Neu5Ac9Ac(a2-6)Gal(b1-4)GlcNAc
How it was run: as §1

[34] = biological target: Neu5Gc(a2-3)Gal(b1-3)GlcNAc
How it was run: as §1

[35] = biological target: Neu5Gc(a2-3)Gal(b1-3)[Fuc(a1-4)]GlcNAc
How it was run: as §1

[36] = biological target: Neu5Gc(a2-3)Gal(b1-4)Glc
How it was run: as §1

[37] = biological target: Neu5Gc(a2-3)Gal(b1-4)GlcNAc
How it was run: as §1

[38] = biological target: Neu5Gc(a2-3)Gal(b1-4)GlcNAc(b1-3)Gal(b1-4)GlcNAc(b1-2)Man(a1-3)[Neu5Gc(a2-3)Gal(b1-4)GlcNAc(b1-3)Gal(b1-4)GlcNAc(b1-2)Man(a1-6)]Man(b1-4)GlcNAc(b1-4)GlcNAc
How it was run: as §1

[39] = biological target: Neu5Gc(a2-3)Gal(b1-4)[Fuc(a1-3)]GlcNAc
How it was run: as §1

[40] = biological target: Neu5Gc(a2-6)Gal(b1-4)GlcNAc
How it was run: as §1

[41] = biological target: Neu5Gc(a2-6)GalNAc
How it was run: as §1

[42] = biological target: Neu5Gc(a2-8)Neu5Ac(a2-3)Gal(b1-4)GlcNAc
How it was run: as §1

[43] = biological target: Neu5Gc(a2-8)Neu5Gc(a2-3)Gal(b1-4)GlcNAc
How it was run: as §1

[44] = biological target: Neu5Gc(a2-8)Neu5Gc(a2-3)Gal(b1-4)GlcNAc(b1-3)Gal(b1-4)GlcNAc
How it was run: as §1

[45] = biological target: Neu5Gc(a2-8)Neu5Gc(a2-6)Gal(b1-4)GlcNAc
How it was run: as §1

[46] = biological target: Neu5Gc(b2-6)Gal(b1-4)GlcNAc
How it was run: as §1

B1: Cohesin-mDC-ASGPR (Macaca mulatta) (protein)
chain: LDITSHHHHHHDDLDAVRIKVDTVNAKPGDTVRIPVRFSGIPSKGIANCDFVYSYDPNVLEIIEIEPGDIIVDPNPDKSFDTAVYPDRKIIVFLFAEDSGTGAYAITKDGVFATIVAKVKEGAPNGLSVIKFVEVGGFANNDLVEQKTQFFDGGVNVGDTTEPATPTTPVTTPTTTDDLDAASSQNSKFQRDLVTLRTDFSNFTSNTVAEIQALTSQGSSVEEMIASLKAEVEVIKQEQQAVHSEMLLRVQRLMQDLNKLTCQVATLKNNASTERTCCPVNWVEHQDSCYWFSRSGMPWAEAEKHCQLENAHLVVINSREEQNFVQEHLSFAYTWMGLSDREGAWKWVDGTDYETGFQNWKPGQPDDWQGHGLGGGEDCAHFHPDGRWNDDVCQRPYYWVCEAGLTQASQESH
[1]
  glycan array binding signal (z-score): -0.385
[2]
  glycan array binding signal (z-score): -0.313
[3]
  glycan array binding signal (z-score): -0.421
[4]
  glycan array binding signal (z-score): -0.269
[5]
  glycan array binding signal (z-score): 2.03
[6]
  glycan array binding signal (z-score): -0.256
[7]
  glycan array binding signal (z-score): -0.167
[8]
  glycan array binding signal (z-score): -0.418
[9]
  glycan array binding signal (z-score): -0.407
[10]
  glycan array binding signal (z-score): -0.379
[11]
  glycan array binding signal (z-score): 3.61
[12]
  glycan array binding signal (z-score): 2.69
[13]
  glycan array binding signal (z-score): 2.56
[14]
  glycan array binding signal (z-score): -0.433
[15]
  glycan array binding signal (z-score): -0.417
[16]
  glycan array binding signal (z-score): -0.41
[17]
  glycan array binding signal (z-score): -0.43
[18]
  glycan array binding signal (z-score): -0.41
[19]
  glycan array binding signal (z-score): -0.399
[20]
  glycan array binding signal (z-score): -0.409
[21]
  glycan array binding signal (z-score): 3.49
[22]
  glycan array binding signal (z-score): 2.11
[23]
  glycan array binding signal (z-score): -0.427
[24]
  glycan array binding signal (z-score): -0.425
[25]
  glycan array binding signal (z-score): -0.429
[26]
  glycan array binding signal (z-score): 1.92
[27]
  glycan array binding signal (z-score): 2.52
[28]
  glycan array binding signal (z-score): -0.403
[29]
  glycan array binding signal (z-score): -0.426
[30]
  glycan array binding signal (z-score): 2.41
[31]
  glycan array binding signal (z-score): -0.348
[32]
  glycan array binding signal (z-score): -0.427
[33]
  glycan array binding signal (z-score): -0.406
[34]
  glycan array binding signal (z-score): -0.4
[35]
  glycan array binding signal (z-score): -0.422
[36]
  glycan array binding signal (z-score): -0.407
[37]
  glycan array binding signal (z-score): -0.399
[38]
  glycan array binding signal (z-score): -0.407
[39]
  glycan array binding signal (z-score): 2.69
[40]
  glycan array binding signal (z-score): -0.412
[41]
  glycan array binding signal (z-score): 2.49
[42]
  glycan array binding signal (z-score): -0.417
[43]
  glycan array binding signal (z-score): -0.403
[44]
  glycan array binding signal (z-score): -0.401
[45]
  glycan array binding signal (z-score): -0.412
[46]
  glycan array binding signal (z-score): -0.424
